{"source": "PubChem BioAssay AID624296", "about": "(National Center for Advancing Translational Sciences (NCATS), 2012)", "note": "The whole screen tested about 350,000 compounds, of which about 9,900 (2.8%) were called active. This list was built around the results that the source calls inconclusive (neither active nor inactive); the mix of calls is not that of the screen. Calls come from the whole dose curve; as a rule, active = well fitted activation curve with a large enough effect; inconclusive = small, poorly fitted or top-dose-only effect; inactive = no such curve, though single readings can be large or run the other way. No potency is given beside an inconclusive call; the fits are too rough. Potency is the fitted concentration of half-maximal effect; tags give direction and shape of the fitted curve."}
{"test": "A quantitative high throughput screen for small molecules that induce DNA re-replication in MCF 10a normal breast cells; note: nearly all actives have a fitted effect of over 50% in size; for activity, positive = re-replication: % of control where 0% means no effect.", "details": "MCF 10A DNA re-replication, Hoechst nuclear intensity, 48 h; activity, positive = re-replication: at 46.1 µM (top of the series)"}
{"molecule": "COc1ccc(O[C@H]2C=C[C@@H](c3ccccc3)O[C@@H]2COC(=O)CCC(C)=NO[C@@H]2O[C@H](COC(C)=O)[C@@H](OC(C)=O)[C@H](OC(C)=O)[C@H]2OC(C)=O)cc1", "activity, positive = re-replication": "inactive: 4.75%"}
{"molecule": "CCc1cc(C(=O)N2CCN(C(=O)c3ccccc3)CC2)sc1C", "activity, positive = re-replication": "inactive: -2.3%"}
{"molecule": "Cc1ccc(O)c(NC(=S)NC(=O)c2ccc(-c3ccc(Cl)cc3)o2)c1", "Potency": "active: 6.51 µM"}
{"molecule": "O=C(COc1ccccc1Cl)NCc1nc(-c2ccccc2)no1", "activity, positive = re-replication": "inactive: 6.51%"}
{"molecule": "Cc1ccccc1OCC(=O)N/N=C/c1ccc(N(C)C)cc1", "Potency": "inconclusive [activator, partial curve, poor fit]"}
{"molecule": "COc1ccc(N2CCN(C(CNC(=O)C(=O)NCc3ccc4c(c3)OCO4)c3ccco3)CC2)cc1", "note": "(stereo not given)", "Potency": "inconclusive [activator, partial curve, poor fit]"}
{"molecule": "O=C(NCC(c1ccco1)N1CCc2ccccc2C1)c1ccc(Cl)c([N+](=O)[O-])c1", "note": "(stereo not given)", "Potency": "inconclusive [activator, single point]"}
{"molecule": "CC(=O)Nc1ccc(NC(=O)C/C(C)=N/NC(=O)C(=O)Nc2ccc(C)c(Cl)c2)cc1", "Potency": "inconclusive [activator, partial curve, poor fit]"}
{"molecule": "Cc1ccc(C(=O)Nc2sc3c(c2C(=O)NCc2ccco2)CCCC3)cc1", "Potency": "inconclusive [activator, full curve]"}
{"molecule": "CC(=O)Nc1ccc(S(=O)(=O)Nc2cc([N+](=O)[O-])ccc2C)cc1", "Potency": "inconclusive [activator, single point]"}
{"molecule": "CC/C(=N\\NC(=O)c1nnn(-c2nonc2N)c1-c1cccc(OC)c1)c1ccc(C)cc1", "Potency": "inconclusive [activator, partial curve, poor fit]"}
{"molecule": "CCN1/C(=C/C=C2/SC(=Nc3cccc4ncccc34)N(C)C2=O)Sc2ccccc21", "Potency": "inconclusive [activator, partial curve, poor fit]"}
{"molecule": "COc1ccc(C(=O)NCCn2cc(SCC(=O)NCC3CCCO3)c3ccccc32)cc1", "note": "(stereo not given)", "Potency": "inconclusive [activator, full curve]"}
{"molecule": "Cc1cc(CN(C)C(=O)CC2C(=O)NCCN2Cc2ccc(F)c(F)c2)on1", "note": "(stereo not given)", "Potency": "inconclusive [activator, single point]"}
{"molecule": "COc1cccc(NC(=O)C2CCN(S(=O)(=O)c3ccccc3)CC2)c1", "activity, positive = re-replication": "inactive: 12%"}
{"molecule": "COc1ccc(-c2c(-c3ccsc3)oc3ccc(N4CCOCC4)cc23)cc1", "Potency": "inconclusive [activator, partial curve, poor fit]"}
{"molecule": "O=C(NCc1ccc2c(c1)OCO2)c1ccc(Cl)c(S(=O)(=O)NCc2ccccc2)c1", "Potency": "inconclusive [activator, single point]"}
{"molecule": "O=C(NCCc1ccccc1)C(=O)NCC1OCCN1S(=O)(=O)c1ccc([N+](=O)[O-])cc1", "note": "(stereo not given)", "Potency": "inconclusive [activator, full curve, poor fit]"}
{"molecule": "Cc1noc(C)c1COc1cccc(C(=O)OCCOc2ccc(F)cc2)c1", "Potency": "inconclusive [activator, partial curve]"}
{"molecule": "NC(=O)c1nsc(C(=O)N(c2ccccc2)C(C(=O)NCC2CCCO2)c2cccs2)c1N", "note": "(stereo not given)", "activity, positive = re-replication": "inactive: 4.5%"}
{"molecule": "CC(C)CN(CC(C)C)C(=S)Nc1ccc(Cl)cc1", "Potency": "active: 18.4 µM"}
{"molecule": "CCOC(=O)C(=CNc1ccc(NC2=NCC(C)S2)cc1)C(=O)OCC", "note": "(stereo not given)", "activity, positive = re-replication": "inactive: 4.87%"}
{"molecule": "Cc1ccc(NCCC(=O)c2cccs2)cc1", "Potency": "inconclusive [activator, single point]"}
{"molecule": "O=C(NC(=S)Nc1cccc2ncccc12)c1cccs1", "activity, positive = re-replication": "inactive: -0.0107%"}
{"molecule": "COc1ccc(CNC(=O)c2sc(=S)n(-c3ccccc3)c2N)cc1", "Potency": "inconclusive [activator, partial curve, poor fit]"}
{"molecule": "CCCNC(=O)CC1Sc2ccccc2NC1=O", "note": "(stereo not given)", "Potency": "inconclusive [activator, single point]"}
{"molecule": "O=C(CCc1ccccn1)N1CCCC(N2CCN(c3ccc(F)cc3)CC2)C1", "note": "(stereo not given)", "activity, positive = re-replication": "inactive: 15.7%"}
{"molecule": "CN(C)CCOc1ccccc1Cc1ccccc1", "Potency": "inconclusive [activator, full curve, poor fit]"}
{"molecule": "Cc1cccc2c(N)c3c(nc12)CCCC3", "note": "(tested in a mixture with another compound)", "Potency": "inconclusive [activator, full curve, poor fit]"}
{"molecule": "CC(=O)Nc1ccc2nc(SCC(=O)NCCOc3ccccc3)sc2c1", "Potency": "inconclusive [activator, single point]"}
{"molecule": "O=C(NCc1ccc(F)c(F)c1)C1CCC(=O)N(CC2CCCCC2)C1", "note": "(stereo not given)", "activity, positive = re-replication": "inactive: 0.975%"}
{"molecule": "COc1cc(C(=O)Nc2ccccc2C(=O)Nc2ccccn2)cc(OC)c1OC", "Potency": "inconclusive [activator, single point]"}
{"molecule": "CCOC(=O)[C@@H]1[C@H]2COc3cc(OC)ccc3[C@H]2N2C(=O)N(c3ccc(F)cc3)C(=O)[C@@]12C", "activity, positive = re-replication": "inactive: 6.51%"}
{"molecule": "O=C(CCS(=O)(=O)c1ccccc1)Nc1nncs1", "Potency": "inconclusive [activator, single point]"}
{"molecule": "O=c1[nH]c(/C=C/c2ccc(Cl)cc2Cl)c([N+](=O)[O-])c(=O)[nH]1", "Potency": "inconclusive [activator, single point]"}
{"molecule": "O=C(Nc1cccc(F)c1)C1CCCN(c2cnccn2)C1", "note": "(stereo not given)", "activity, positive = re-replication": "inactive: 3.53%"}
{"molecule": "C/C(=N\\Nc1ccc([N+](=O)[O-])cc1)c1ccc(O)cc1", "Potency": "active: 14.6 µM"}
{"molecule": "COc1ccc(CNC(=O)Nc2ccccc2)cc1", "activity, positive = re-replication": "inactive: 1.36%"}
{"molecule": "CC(C)(C)C(=O)Nc1ccc(C(=O)N/N=C/c2ccccc2OC(=O)c2ccccc2)cc1", "Potency": "inconclusive [activator, partial curve]"}
{"molecule": "CCCCN(C(=O)COC(=O)c1ccc(C=O)cc1)c1c(N)n(CCC)c(=O)[nH]c1=O", "activity, positive = re-replication": "inactive: 9.07%"}
{"molecule": "O=C(c1ccc(-n2cnnn2)cc1)N(C1CCCCC1)C1CCCCC1", "Potency": "inconclusive [activator, single point]"}
{"molecule": "CC1(C)S[C@@H]2[C@H](NC(=O)COc3ccccc3)C(=O)N2C1C(=O)OCC1CCCCC1", "note": "(stereo not given in full)", "Potency": "inconclusive [activator, single point]"}
{"molecule": "CCN(CC)C(=O)[C@H]1C[C@H](CC(=O)NCC23CC4CC(CC(C4)C2)C3)C(=O)N2CCc3c([nH]c4ccc(Cl)cc34)[C@]12C", "activity, positive = re-replication": "inactive: 3.24%"}
{"molecule": "COc1ccccc1OCc1ccc(C(=O)Nc2cc(OC)c(OC)c(OC)c2)o1", "Potency": "inconclusive [activator, single point]"}
{"molecule": "S=c1[nH]nc(-c2ccncc2)n1/N=C/C=C/c1ccco1", "activity, positive = re-replication": "inactive: -4.17%"}
{"molecule": "CCCCCOC(=O)c1[nH]c2c(c1C)C(=O)CC(c1ccco1)C2", "note": "(stereo not given)", "Potency": "inconclusive [activator, full curve, poor fit]"}
{"molecule": "COc1cc(OC)cc(C(=O)Nc2ccc(NC(=O)c3ccco3)c(Cl)c2)c1", "Potency": "inconclusive [activator, single point]"}
{"molecule": "Cn1c(CNC(=O)CNC(=O)c2cccc(Cl)c2)cc(=O)n(C)c1=O", "activity, positive = re-replication": "inactive: 3.64%"}
{"molecule": "COC(=O)CCn1nc(-c2ccc(C)cc2)c2ccccc2c1=O", "activity, positive = re-replication": "inconclusive: 30.8% [activator]"}
{"molecule": "COC(=O)c1ccc(NC(=O)CCN2CCN(c3ccccc3)CC2)cc1", "Potency": "inconclusive [activator, partial curve, poor fit]"}
{"molecule": "CSc1ccc(-c2nc3cnccn3c2Nc2ccc3c(c2)OCO3)cc1", "Potency": "active: 5.8 µM"}
{"molecule": "Cc1cc(=O)[nH]c(N/N=C/c2c(C)nn(-c3ccccc3)c2Cl)n1", "Potency": "inconclusive [activator, single point]"}
{"molecule": "CC1(C)CC(O)C(C)(C)N1O", "note": "(stereo not given)", "Potency": "inconclusive [activator, full curve, poor fit]"}
{"molecule": "CCCOc1ccc(Cc2c(Cl)nc(SC)nc2NC)cc1", "Potency": "inconclusive [activator, partial curve, poor fit]"}
{"molecule": "O=C(COC(=O)c1cccs1)Nc1ccccc1", "Potency": "inconclusive [activator, single point]"}
{"molecule": "Cc1nn(Cc2ccc(Cl)c(Cl)c2)c(C)c1NC(=O)c1cc(-c2ccco2)on1", "Potency": "inconclusive [activator, single point]"}
{"molecule": "O=C(N/N=C/c1c[nH]c2ccccc12)c1[nH]c2ccc(Br)cc2c1-c1ccccc1", "activity, positive = re-replication": "inconclusive: 111% [activator]"}
{"molecule": "OCc1ccc2c(c1)c(-c1ccc3c(c1)OCCO3)c(-c1ccccc1)n2-c1ccccc1", "Potency": "inconclusive [activator, full curve]"}
{"molecule": "O=C(C1CCN(S(=O)(=O)c2cccc3nsnc23)CC1)N1CC=C(c2ccccc2)CC1", "Potency": "inconclusive [activator, full curve, poor fit]"}
{"molecule": "Cc1[nH]n2c(=O)cc(-c3ccc([N+](=O)[O-])cc3)nc2c1-c1ccccc1", "Potency": "inconclusive [activator, partial curve, poor fit]"}
{"molecule": "CCCN(CCC)S(=O)(=O)c1cc(Br)cc2c1N(C(=O)CC)CC2", "Potency": "inconclusive [activator, partial curve, poor fit]"}
{"molecule": "CC(C)CN1CC(=O)N2C(c3ccccc3)c3[nH]c4ccccc4c3C[C@H]2C1=O", "note": "(stereo not given in full)", "Potency": "inconclusive [activator, single point]"}
{"molecule": "CCOc1cc(CNc2cccc3[nH]c(C)nc23)ccc1OC", "Potency": "inconclusive [activator, partial curve, poor fit]"}
{"molecule": "CC(C)(C)CC(C)(C)NCC(O)COc1ccc2c(c1)CCC2", "note": "(stereo not given)", "Potency": "inconclusive [activator, single point]"}
{"molecule": "CCN(c1ccccc1)S(=O)(=O)c1ccc(C(=O)N(CCCN(C)C)c2nc3c(C)cccc3s2)cc1", "Potency": "inconclusive [activator, partial curve, poor fit]"}
